Laboratory results from PubChem BioAssay AID686971 (National Center for Advancing Translational Sciences (NCATS), 2013).
In all, about 360,000 compounds went through this assay and about 7,500 (2.1%) were called active. Inconclusive means that the source gave no clear call. Such entries were picked first, then a sample of the others. The call rests on the fitted dose curve; in most records, active means well fitted cell-killing curve with a large enough effect; inconclusive means small, poorly fitted or top-dose-only effect, or effect the other way, or another doubt; inactive means no such curve, though single readings can be large or run the other way. Potencies of inconclusive entries are left out as doubtful fits.

experiment: qHTS for induction of synthetic lethality in tumor cells producing 2HG: qHTS for the HT-1080-IDH1KD cell line; details: HT-1080 IDH1 knockdown viability, ATP luminescence, 48 h; activity, negative = toxicity: at 46.1 µM (top of the series) unless noted;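 on activity, negative = toxicity: 0% = DMSO wells and -100% = cell-free medium wells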
In short: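 After a 2 h attachment period, IDH1KD HT-1080 cells took pin-transferred compound for 48 h at 37 °C; ATP-based luminescence after 10 min room-temperature reagent incubation reported viability.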
Potency means the concentration at half of the fitted maximal effect; tags describe the fitted curve by direction and shape.

Structure (SMILES) | activity, negative = toxicity | Potency
CN(C)S(=O)(=O)c1ccc(Cl)c(NC(=O)c2ccncc2)c1 | inactive: 2.76% | –
Cc1ccc(C)c2c1[nH]c1ccc([N+](=O)[O-])cc12 | – | inconclusive [cytotoxic, single point]
COc1ccc(CCNC(=S)Nc2cccc(C)c2)cc1 | inactive: -7.09% | –
O=C(Nc1cccc(-c2cccc(Cl)c2)c1)C1CCN(Cc2ccon2)CC1 | – | inconclusive [cytotoxic, partial curve]
O=C(Nc1nccs1)c1ccc(CSc2ccccc2)o1 | inactive: -8.49% | –
O=C1C(=C(c2ccccc2)c2ccccc2)Nc2ccccc21 | – | inconclusive [cytotoxic, partial curve]
CC(=O)Nc1cccc(-c2cc(NC(C)=O)c3ncc(-c4ccc(C(C)=O)cc4)n3c2)c1 | inactive: -25.1% | –
O=C(O)[C@H](Cc1c[nH]c2ccccc12)Nc1ncccc1[N+](=O)[O-] | inactive: -11.3% | –
Cc1cccc(-c2nc(CSCC(=O)N3CCN(c4ccccn4)CC3)c(C)o2)c1 | – | inconclusive [cytotoxic, single point]
CCc1ccc(-n2cc(-c3ccc(F)cc3)[n+]3c2SCCC3)cc1 | – | inconclusive [cytotoxic, partial curve]
O=C(CSc1nnnn1-c1cccc2ccccc12)Nc1ccc(N2CCOCC2)c(Cl)c1 | – | inconclusive [cytotoxic, single point]
COc1ccc(C=C2CS(=O)(=O)CC(=Cc3ccc(OC)cc3)C2=O)cc1 | – | active: 3.66 µM
CCOC(=O)c1ccc(NC(=S)N(CCCN2CCN(CC)CC2)Cc2cccs2)cc1 | – | inconclusive [cytotoxic, single point]
COc1cccc(/C=C2\C(=O)C(=O)c3ccccc32)c1 | – | inconclusive [cytotoxic, single point]
C/C(=N\NC(=S)NCc1ccccc1)c1cccc(Br)c1 | – | inconclusive [cytotoxic, single point]
COc1ccc(C(=O)N2CCC2(C)C(=O)NC(C)C)c(OC)c1 (configuration not stated) | – | inconclusive [rising, single point]
CC(C)C[C@@H]1CN(CCCC[C@H]2CNC(=O)C(=O)N2CCC2CCCCC2)C(=O)C(=O)N1Cc1ccccc1 | – | inconclusive [cytotoxic, single point]
O=C(COc1ccc(Br)cc1Br)NC1CCCC1 | inactive: -13.6% | –
COc1ccc(-c2sc3ccccc3c2C#Cc2cncn2C)cc1 | – | inconclusive [cytotoxic, single point]
CCOc1ccc(-c2nnc(-c3ccccc3)o2)cc1 | inactive: -7.09% | –
NC(=O)N1c2ccccc2CC(=O)c2ccccc21 | inactive: 1.9% | –
CN1C(=O)/C(=N\OC(=O)c2cccc3ccccc23)c2ccccc21 | – | inconclusive [cytotoxic, single point]
N#C/C(=N\Nc1ccc(Cl)cc1)C(=N)N1CCCCCC1 | inactive: 7.1% | –
Cc1c2cc(O)c(=O)cc-2oc2cc(O)c(O)cc12 | – | inconclusive [cytotoxic, partial curve]

Structure (SMILES) | activity, negative = toxicity | Potency
Cc1c(C(=O)NCC2CCCO2)sc2nc(-c3ccccc3)cn12 (configuration not stated) | – | inconclusive [cytotoxic, partial curve]
Cc1ccc(-c2csc(C(C)(O)c3ccc(F)c(F)c3)n2)cc1C (configuration not stated) | – | inconclusive [cytotoxic, single point]
Cc1cc(C)c(OCCCNC2CCCC2)c(Br)c1 | – | inconclusive [cytotoxic, single point]
COc1cc(C(=O)NCCN2C(=O)S/C(=C\c3cccs3)C2=O)cc(OC)c1OC | – | inconclusive [cytotoxic, single point]
C[C@@H](C(=O)NCC1CC1)[C@H]1C[C@]1(C)[C@H](NC(=O)OCc1ccccc1)c1ccccc1 | inactive: 2.11% | –
Cc1nn(CC(=O)Nc2ccc3c(c2)nc2n3CCN(C3CCCCC3)C2)c(=O)c2ccccc12 | inactive: -10.8% | –
O=C(Cc1ccccc1F)N1CCN(S(=O)(=O)c2ccc(Cl)cc2)CC1 | inactive: -4.98% | –
COc1cc(NC(=O)c2cnc(NCc3ccccc3)nc2C)cc(OC)c1OC | – | inconclusive [cytotoxic, single point]
NNC(=S)NCc1ccc2c(c1)OCO2 | inactive: 12.5% | –
O=C(CN1CCC(n2cnc3cc(F)ccc32)CC1)Nc1ccccc1Br | inactive: 1.43% | –
COc1ccc(C2=NCCn3nc4ccccc4c32)cc1 | inconclusive: -13.8% [cytotoxic] | –
CCOc1ncccc1C(=O)N1CCN(c2cccc(C)c2C)CC1 | – | active: 0.184 µM
O=C(N/N=C/c1cccc(O)c1)c1cc(-c2ccccc2)nc2ccccc12 | – | inconclusive [cytotoxic, partial curve]
O=C(Nc1cccc([N+](=O)[O-])c1)NC1CCCCCCC1 | – | inconclusive [cytotoxic, single point]
CCOc1cc2c(cc1OCC)C(c1ccccc1)N(c1ccccc1)C(=O)C2 (configuration not stated) | – | inconclusive [cytotoxic, partial curve]
CCOC(=O)c1ccc(NC(=S)NCCc2ccccc2F)cc1 | inactive: -6.66% | –
CCN(CC)CCCNC(=O)c1cc(-c2ccc(Cl)c(Cl)c2)on1 | – | inconclusive [cytotoxic, single point]
c1ccc(-n2cnc3cc(NCc4ccncc4)ccc32)cc1 | inactive: -6.14% | –
COc1ccc(-c2cnc3c(NC=O)cc(-c4ccccc4)cn23)cc1OC | – | inconclusive [cytotoxic, full curve]
N=c1c2c(-c3ccccc3)c(-c3ccccc3)n(Cc3ccco3)c2ncn1CCN1CCOCC1 | – | inconclusive [cytotoxic, single point]
O=C(NCc1ccco1)c1cc2sccc2n1Cc1ccccc1 | – | inconclusive [cytotoxic, single point]
COc1ccccc1N(C(=O)CCl)c1cn(C(C)=O)c2ccccc12 | – | active: 7.31 µM
Cc1noc(C)c1COc1ccccc1C(=O)NCc1ccco1 | inactive: -0.96% | –
O=C1Nc2ccccc2/C1=C/c1ccccc1Cl | – | inconclusive [cytotoxic, single point]

Structure (SMILES) | activity, negative = toxicity | Potency
Cc1ccc2oc(C(=O)NCc3ncc(C)[nH]3)c(C)c2c1 | – | active: 16.4 µM
CCCCCCCCN1C(=O)[C@H](CC(=O)NCc2ccc(OC)c(OC)c2)C[C@@]2(C(=O)OC)CC(C)(C)CC=C12 | – | inconclusive [cytotoxic, single point]
Cc1cc(N2CCN(C(C(=O)NC3CCCC3)c3ccc(F)cc3)CC2)c2ccccc2n1 (configuration not stated) | – | inconclusive [cytotoxic, single point]
O=C(CSc1nnc2sc3ccccc3n12)NCc1ccco1 | – | inconclusive [cytotoxic, single point]
COc1ccc(N(CC(=O)N2CCc3ccccc3C2)S(=O)(=O)c2ccccc2)cc1 | inactive: 3.07% | –
Cc1cccc(-c2cc3nc(C)cc(NCCCN(C)C)n3n2)c1 | – | inconclusive [cytotoxic, single point]
COc1ccc(Nc2ncnc3c2cnn3Cc2ccc(C)cc2)cc1 | – | inconclusive [cytotoxic, single point]
Cc1ccc(NC(=O)CCN2CCC(Cc3ccccc3)CC2)cc1 | – | inconclusive [cytotoxic, single point]
O=C(O)c1ccc(C=NN=C2c3ccccc3-c3ccccc32)cc1 | inconclusive: 14.3% | –
Cc1c(CC(=O)N2CCC(O)CC2)c(=O)oc2cc3c(cc12)CCC1(CCCCC1)O3 | inactive: -17.6% | –
COc1ccc(Cl)cc1NC(=O)C/C(C)=N/NC(=O)C(=O)NCc1ccccc1 | – | inconclusive [cytotoxic, partial curve]
COC(=O)c1sc(NC(=O)COc2cccc3ccccc23)nc1C | – | inconclusive [cytotoxic, single point]
O=[N+]([O-])c1cccc(NC(=S)Nc2nc(-c3ccccc3Cl)cs2)c1 | – | active: 18.4 µM
Cc1ccc(CNC(=O)COC(=O)c2cc3c(s2)CCC(C)C3)cc1 (configuration not stated) | – | inconclusive [cytotoxic, partial curve]
CCCCNc1oc(-c2cccs2)nc1S(=O)(=O)c1ccccc1 | – | inconclusive [cytotoxic, single point]
COc1cc(OC)cc(C(=O)N[C@H](C(=O)NC23CC4CC(CC(C4)C2)C3)C(C)C)c1 | inactive: -21.6% | –
COc1cccc(NC(=O)CSC2=C(C#N)C(c3ccco3)C3=C(CCCC3=O)N2)c1 (configuration not stated) | – | active: 7.31 µM
CCc1nc(C)cn1S(=O)(=O)c1cc(C)c(OC)c(C)c1C | – | inconclusive [cytotoxic, single point]
CC(=O)c1c(C)[nH]c(C(=O)NCCC2=CCCCC2)c1C | – | inconclusive [cytotoxic, single point]
NC(Cc1ccccc1)c1csc(NC(=O)c2cccc(OC(F)(F)F)c2)n1 (configuration not stated) | inconclusive: -29.1% [cytotoxic] | –
CCOC(=O)c1cc(C#N)c(N2CCN(C(=O)c3cccc(C(F)(F)F)c3)CC2)nc1C(F)(F)F | – | inconclusive [cytotoxic, full curve, poor fit]
c1csc(Cn2c(-c3cccs3)nc3ccccc32)c1 | inactive: -10.8% | –
CC1(Cc2ccc(Cl)c(Cl)c2)C(=O)Nc2c(Cl)ccc(Cl)c21 (configuration not stated) | – | inconclusive [cytotoxic, single point]
COc1ccc(Cc2[nH]n3c(=O)cc(C(C)C)nc3c2-c2ccccc2)cc1 | – | inconclusive [cytotoxic, partial curve]
